About 4,300 (8.3%) of roughly 52,000 compounds were called active. Cut-off read from the data, not from the text of the source: active = survival mostly below about 52% (no sharp cut-off); inactive = mostly above about 56%. The list shows a part of the results.
What follows are molecules tested on DeltatarO mutant (assay: growth inhibition of S. aureus wild type versus tarO mutant, primary screen, teichoic acid synthesis inhibitors, RN4220, OD600 (AID 463173)). Details: OD600, 18 h, active compounds read low, screened at 18.75 µg/mL (by protocol).

| Structure (SMILES) | survival |
| --- | --- |
| O=C(Nc1ccc(F)cc1)C1CCN(c2nc3ccccc3nc2C(F)(F)F)CC1 | inactive: 118% |
| CCn1c(SC)nc2c([nH]c3ccccc32)c1=O | inactive: 67% |
| O=C(Cn1ccc2cc(S(=O)(=O)N3CCCC3)ccc21)NCc1ccc(Cl)cc1 | inactive: 84% |
| Cc1cc(C)cc(NC(=O)CC(C)n2nc(C)cc2C)c1 (stereo not given) | inactive: 74% |
| COc1ccc(CNC(=O)c2ccc3c(c2)N=C(C)c2c(C)ccc(C)c2S3)cc1 | inactive: 82% |
| CCOC(=O)c1c(S(=O)(=O)N2CCC(C(=O)Nc3ccc(C)cn3)CC2)c(C)n(C)c1C | inactive: 101% |
| Cc1[nH]c(=O)[nH]c(=O)c1S(=O)(=O)Nc1cccc(Cl)c1C | inactive: 73% |
| CCOc1ccc(CNC(=O)Cn2nc(C)c3nn(-c4ccc(Cl)cc4)c(C)c3c2=O)cc1 | inactive: 118% |
| COc1cc(-c2ccno2)ccc1S(=O)(=O)N1CCN(c2cccc(Cl)c2)CC1 | active: -1% |
| COc1ccccc1NC(=O)c1sc2nc(-c3cc4cc(Cl)ccc4oc3=O)[nH]c(=O)c2c1C | active: 45% |
| Cc1ccc(CNC(=O)c2oc3ccc(S(=O)(=O)N4CCCC(C)C4)cc3c2C)cc1 (stereo not given) | inactive: 51% |
| Cc1oc2ncnc(N3CCCCC3)c2c1C(=O)NCC1CCN(Cc2ccccc2F)CC1 | inactive: 92% |
| Cc1cccc(NC(=O)c2ccccc2)n1 | inactive: 93% |
| COc1ccc(NC(=O)C2=C(C)Nc3nc(SCc4ccc(C)cc4C)nn3C2c2cccc(OC)c2OC)cc1 (stereo not given) | inactive: 80% |
| O=C(O)C1C2C=CC(O2)C1C(=O)Nc1ccccc1 (stereo not given) | inactive: 98% |
| NS(=O)(=O)c1ccc(NC(=O)c2cc(-c3cccs3)nc3ccccc23)cc1 | inactive: 118% |
| Cc1ccc(NC(=O)CCCc2nnc3n(C)c(=O)c4sccc4n23)cc1C | inactive: 96% |
| CC1(C(=O)NN)NC2(CCCCC2)Cc2ccccc21 (stereo not given) | inactive: 103% |
| COCC(=O)N1CCN(c2ncnc3c(-c4ccc(Cl)cc4)nsc23)CC1 | inactive: 90% |
| COC(=O)Nc1c(-c2ccccc2)nc2ccc(C)cn12 | inactive: 74% |
| COc1ccc(CCNS(=O)(=O)c2ccc3c(c2)c(=O)n(C)c(=O)n3C)cc1OC | inactive: 85% |
| NC(=O)CSc1nc2ccc(NC(=O)COc3ccccc3)cc2s1 | inactive: 79% |
| CCCn1c(=N)c(C(=O)NC2CCCC2)cc2c(=O)n3cc(C)ccc3nc21 | inactive: 60% |

| Structure (SMILES) | survival |
| --- | --- |
| CC1CCC(NC(=O)c2ccc3c(c2)N(Cc2ccccc2F)C(=O)c2ccccc2S3)CC1 (stereo not given) | inactive: 83% |
| O=C(NCC1CCCO1)NC12CC3CC(CC(C3)C1)C2 (stereo not given) | inactive: 78% |
| CC1CCCC(C)N1C(=O)CSc1nnc(-c2ccccc2)o1 (stereo not given) | inactive: 108% |
| c1ccc(-c2cc(-c3ccccc3)c3c(n2)-c2ccccc2OC3)cc1 | inactive: 50% |
| CC1CCN(S(=O)(=O)c2ccc3c(c2)N(CC(=O)NCc2ccccc2Cl)C(=O)CS3)CC1 | inactive: 71% |
| COc1nc(NC23CC4CC(CC(C4)C2)C3)nc(OC)n1 | inactive: 107% |
| CN(C)c1cc[n+](CC(=O)N2CCCc3ccccc32)cc1 | inactive: 85% |
| CCOc1ccc(C(=O)NCCc2sc(-c3ccc(C)cc3)nc2C)cc1 | active: -1% |
| COc1cc(Nc2nc(SCc3ccccc3F)nc3ccccc23)cc(OC)c1 | inactive: 118% |
| Cc1ccc(CCNC(=O)c2ccc(CS(=O)(=O)c3ccc(Br)cc3)o2)cc1 | inactive: 125% |
| CCOc1ccccc1NC(=O)CSc1c(C)cnc2c1c(=O)n(C)c(=O)n2C | inactive: 89% |
| CCCCNc1ccc(-c2nc(-c3ccccc3)no2)cc1[N+](=O)[O-] | inactive: 72% |
| O=C(Nc1cccc(C(F)(F)F)c1)C1CCCN(S(=O)(=O)c2cccc3nsnc23)C1 (stereo not given) | inactive: 64% |
| COC(=O)C(=NNc1cccc(Cl)c1)C(=O)OC | inactive: 75% |
| O=S(=O)(Nc1ccc(F)c(C(F)(F)F)c1)c1ccc(N2CCCCS2(=O)=O)cc1 | inactive: 124% |
| COc1ccc(C2C(=O)N(C3CCC(C)CC3)CC(=O)N2Cc2ccc(C)cc2)cc1OC (stereo not given) | inactive: 86% |
| Cc1ccc(C#N)c(=O)[nH]1 | inactive: 78% |
| Cc1cc(C)cc(NC(=O)Cn2nnc(C(=O)NCCc3ccccc3)c2N)c1 | inactive: 74% |
| COc1ccc(OC)c(CNS(=O)(=O)c2c(C(=O)N3CCC(C)CC3)c(C)n(C)c2C)c1 | inactive: 60% |
| CC1=C(C(=O)Nc2cccc(C)c2C)C2(CCCCC2)OC1=O | inactive: 89% |
| CC1(C)NC(=O)N(CC(O)CNC23CC4CC(CC(C4)C2)C3)C1=O (stereo not given) | inactive: 61% |
| CCOCCCNC(=O)C(c1ccc(OC)cc1)N(Cc1cccs1)C(=O)c1ccccc1O (stereo not given) | inactive: 50% |
| COc1ccc(CCNC(=O)c2cnc3sc(N4CCCCCC4)nn3c2=O)cc1OC | inactive: 89% |

| Structure (SMILES) | survival |
| --- | --- |
| CCOc1ccc(C(=O)NC2CCN(C(=O)NCc3ccccc3)CC2)cc1 | inactive: 84% |
| COc1ccccc1N1CCN(CCCNC(=O)c2cnn(-c3ccccc3Cl)c2C2CCN(C(=O)OC(C)(C)C)CC2)CC1 | inactive: 71% |
| CC(C)NC(=O)CSc1nc2ccccc2nc1N1CCCCC1 | active: -26% |
| Cc1ccc(Sc2ccc(N3CCCC(C(=O)Nc4ccc(Cl)cc4)C3)nn2)cc1 (stereo not given) | inactive: 63% |
| Cc1ccc(C(c2nnnn2C2CCCC2)N2CCc3ccccc32)cc1 (stereo not given) | inactive: 100% |
| CC1CCN(CC(=O)N2CCCc3c2c(=O)oc2ccc(OCc4ccccc4)cc32)CC1 | inactive: 98% |
| COc1ccc(Cn2nnnc2CN(Cc2cccs2)Cc2cc3ccc(OC)cc3[nH]c2=O)cc1 | inactive: 95% |
| CC(=O)c1ccc(NC(=O)CN(C)S(=O)(=O)c2cc3c(cc2C)NC(=O)CO3)cc1 | inactive: 84% |
| CC1(C(=O)Nc2cccc(C(F)(F)F)c2)Cc2ccccc2C(=O)O1 (stereo not given) | inactive: 96% |
| COc1ccc(C(c2c(C)n(C)n(-c3ccccc3)c2=O)c2c(C)n(C)n(-c3ccccc3)c2=O)cc1O | inactive: 84% |
| COc1cc(OC)c(NC(=O)Nc2nnc(N(C)C3CCCCC3)s2)cc1Cl | active: 23% |
| CCOc1cccc2sc(N(Cc3cccnc3)C(=O)c3ccco3)nc12 | inactive: 77% |
| Cc1ccc(N2CC(NC(=O)Cc3cccs3)CC2=O)cc1 (stereo not given) | active: 8% |
| COc1ccc(-c2cc3c(=O)n(CC(=O)Nc4ccccc4C(F)(F)F)ccn3n2)cc1OC | inactive: 86% |
| CCCc1nc(N)c(C#N)c(-c2ccc(F)cc2)c1CC | inactive: 66% |
| CCc1cc(=O)oc2cc(C)c3c(-c4ccc(F)cc4)coc3c12 | active: 33% |
| CCCN(CCC)CCCNC(=O)c1cc2c(-c3ccc(Cl)cc3)nn(C)c2s1 | inactive: 129% |
| Cc1cccc(NC(=O)CSc2nc3c(oc4ccccc43)c(=O)n2-c2ccccc2)c1C | inactive: 79% |
| Cc1ccc(S(=O)(=O)N2CCC(C(=O)Nc3cc(C)ccc3C)CC2)cc1 | inactive: 69% |
| Cc1ccccc1CN1C(=O)c2ccccc2Sc2ccc(C(=O)N3CCOCC3)cc21 | inactive: 83% |
| COc1ccccc1-c1c(C(F)(F)F)oc2c(CN3CCCCC3C)c(O)ccc2c1=O (stereo not given) | inactive: 62% |
| O=C(Nc1ccc2oc(-c3cccc4c(Br)cccc34)nc2c1)c1ccc(Br)cc1 | inactive: 71% |
| CC(=O)c1[nH]c(C)c(C(=O)NCc2ccc(Cl)cc2)c1C | inactive: 100% |

| Structure (SMILES) | survival |
| --- | --- |
| COc1cc(C)c(S(=O)(=O)Nc2cccc(-c3ccc(N4CCCC4)nn3)c2)cc1C | inactive: 83% |
| CCN1C(=O)c2ccccc2S(=O)c2ccc(C(=O)N3CCN(c4ccc(F)cc4)CC3)cc21 (stereo not given) | inactive: 75% |
| Cc1cccc(-c2nc(-c3ccc4c(c3)[nH]c(=O)n4C)no2)c1 | inactive: 89% |
| Cc1cccc2cc(C(c3nnnn3CCc3ccccc3)N3CCN(c4nc5ccccc5s4)CC3)c(=O)[nH]c12 (stereo not given) | inactive: 93% |
| O=C(NC1CCCC1)c1ccc2c(c1)OCO2 | inactive: 69% |
| COc1ccccc1CCNC(=O)Cc1c(C)c2c(O)cc(C)cc2oc1=O | inactive: 55% |
| COC(=O)c1ccc([C@@H]2Nc3c(cccc3C(F)(F)F)[C@@H]3C=CC[C@@H]32)cc1 | active: -3% |
| COc1cc(-c2cc3n(C)c(C)c(CCC(=O)Nc4ccc(F)cc4)c(=O)n3n2)cc(OC)c1OC | inactive: 70% |
| COc1ccc(Cn2c(=O)c3oc4ccccc4c3n(Cc3ccccc3)c2=O)cc1 | inactive: 82% |
| Cc1ccc(OCCSc2nc(-c3cccs3)nc3cc(=O)[nH]n23)cc1Cl | inactive: 112% |
| O=C(CSc1c2c(nc3ccccc13)CCC2)Nc1ccc(F)cc1F | inactive: 69% |
| CC(CNC(=O)c1sc2ncccc2c1-n1cccc1)c1ccccc1 (stereo not given) | inactive: 102% |
| CC(C)(Oc1ccc(Cl)cc1)C(=O)Nc1cccc(-c2cn3cccnc3n2)c1 | inactive: 89% |
| Cc1nc2scc(C)n2c(=O)c1S(=O)(=O)Nc1ccc(N2CCN(C(=O)C(C)C)CC2)cc1 | inactive: 156% |
| CC1(C)CC(=O)c2cc(C(=O)Nc3ccc(Cl)cc3)c(=O)[nH]c2C1 | inactive: 88% |
| Cn1c(=O)c2c(ncn2C/C=C/c2ccccc2)n(C)c1=O | inactive: 69% |
| COc1ccc(NC(=O)CCN2CCOCC2)cc1 | inactive: 98% |
| Cc1ccc(NC(=O)CSc2nc3c(c(=O)[nH]2)CN(Cc2ccccc2)CC3)cc1Cl | inactive: 70% |
| Nc1nc2nc(-c3ccc(Cl)cc3)cc(C(F)(F)F)n2n1 | inactive: 182% |
| COC(=O)c1c(NC(=O)C2c3ccccc3Oc3ccccc32)sc2c1CCC(C)C2 (stereo not given) | inactive: 56% |
| Nc1nonc1-c1nc2ccccc2n1Cc1ccc(Br)cc1 | inactive: 84% |
